# Experimental data as given in the supplement of paper PMC3334620.
# Whole data set: some 33,000 sequences, median “E-score (-0.5 to 0.5)” near -0.012, cut for the highest 2% near 0.27. The list shows a part of the results.
# Target: T1, Vhr1 (UniProt P40522)
# T1 sequence: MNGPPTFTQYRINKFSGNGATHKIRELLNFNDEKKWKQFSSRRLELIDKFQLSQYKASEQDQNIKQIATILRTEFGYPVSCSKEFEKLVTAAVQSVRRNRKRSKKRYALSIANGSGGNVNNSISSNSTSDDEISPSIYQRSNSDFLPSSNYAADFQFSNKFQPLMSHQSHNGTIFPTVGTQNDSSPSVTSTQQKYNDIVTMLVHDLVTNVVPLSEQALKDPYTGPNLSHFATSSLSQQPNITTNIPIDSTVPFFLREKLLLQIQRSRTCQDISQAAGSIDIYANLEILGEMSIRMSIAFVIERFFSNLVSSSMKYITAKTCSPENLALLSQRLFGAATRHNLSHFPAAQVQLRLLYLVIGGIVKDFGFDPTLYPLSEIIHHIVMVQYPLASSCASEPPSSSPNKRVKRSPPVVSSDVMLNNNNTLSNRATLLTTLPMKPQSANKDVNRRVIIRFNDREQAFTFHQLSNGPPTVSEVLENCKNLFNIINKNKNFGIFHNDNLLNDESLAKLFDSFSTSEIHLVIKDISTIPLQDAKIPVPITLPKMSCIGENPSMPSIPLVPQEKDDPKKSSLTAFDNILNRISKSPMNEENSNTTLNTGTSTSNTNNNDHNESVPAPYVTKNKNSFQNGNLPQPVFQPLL
# Assay: PBM E-score (8-mer binding enrichment) (E-score (-0.5 to 0.5)); higher = stronger / more preferred TF binding; most listed sequences are background and not binding sites
# Settings: protein concentration: 200 nM; construct: GST-full length
# How it was run: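 Bound GST-tagged yeast transcription factors, applied at about 100-200 nM to double-stranded universal all-10-mer Agilent arrays, were detected with fluorescent anti-GST. Scans were normalised with masliner. A modified Wilcoxon-Mann-Whitney statistic, the E-score, was assigned to each ungapped eight-base word pooled with its reverse complement by the Universal PBM Analysis Suite.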
row,Sequence,PBM E-score
1,GTGACCAC,0.0504
2,CCTAGACC,-0.157
3,CTACCATA,0.232
4,ACCAGTTG,0.173
5,TCCCTGAA,-0.0584
6,CTAGTCTA,-0.0969
7,AACTCTAT,-0.0324
8,AAATTCGT,0.0882
9,CCCGGTAA,-0.12
10,ACTACTAA,0.0623
11,AATCTTTA,-0.0819
12,GATCCTTA,-0.128
13,AGAAGGCG,-0.17
14,CTGGATCC,0.0152
15,GGGTGGGA,0.239
16,AATACGGT,-0.119
17,GAACTCTC,-0.101
18,CCCGTGGA,0.0571
19,GAGGAACA,0.0217
20,CCCCCCAA,-0.258
21,CCGCCGTA,0.0806
22,CTGTGACC,-0.056
23,GCGCCTAC,0.0653
24,ACACGCAT,0.102
25,CACCAAAC,0.0452

row,Sequence,PBM E-score
1,ATTACTTG,0.164
2,ATGCGCTG,-0.0838
3,AGTGCTAG,-0.104
4,AATCTGTC,-0.0564
5,GTGAACAA,-0.0196
6,ACGATACA,0.0859
7,ACTACCCC,0.0818
8,AAACAGGG,-0.0118
9,ACCCCGAA,0.119
10,AAGTCCTA,-0.235
11,AAAGACGC,-0.154
12,ACGCTTGC,-0.0692
13,AACTAGCT,-0.0619
14,ATGCGTTC,0.152
15,ATCGGAGA,0.00168
16,GAACGGCC,-0.107
17,CTATACAC,-0.0983
18,CTACTTGC,0.0953
19,AGAGGACG,0.127
20,CCTGCCAA,-0.199
21,TATCTCCA,0.112
22,AGCAAAAG,-0.248
23,CCTAGAAA,-0.339
24,AAGTGTAT,-0.187
25,CTCGATAC,0.0671

row,Sequence,PBM E-score
1,CGCCGCAA,-0.089
2,CGATTGCC,-0.114
3,AGTGCACG,-0.0604
4,AGGTTTTA,-0.216
5,CAATATGC,0.114
6,ATCGCGTC,0.0208
7,ACTTGACT,0.0723
8,CGCTCCTA,-0.0243
9,AACGCTGA,0.00567
10,TGTAAAAA,-0.225
11,CAGGATGA,0.266
12,CCTATCAA,-0.182
13,CAGCGGCG,0.177
14,TACTTAAA,-0.393
15,CGCAGGAA,0.0761
16,CTCCATCA,0.2
17,GGTGGCAC,-0.0593
18,CTCCTGTC,-0.0765
19,ATAAGGAG,0.0344
20,GCCGTTAC,0.0559
21,CAACAAGG,0.227
22,CTGTGCAC,-0.0754
23,AAAAATGA,-0.0948
24,AATGGGCA,-0.103
25,CGAAACCG,-0.01

row,Sequence,PBM E-score
1,CAACTATC,0.125
2,GCCACAGA,-0.18
3,GCAACACC,0.0734
4,ACGCGCCA,-0.0442
5,AGTCAAGC,0.00212
6,CAAAGGAC,-0.204
7,ATTTTTAA,0.0376
8,CGATGGTA,-0.00809
9,TCGCGAGA,0.0565
10,AGCTACGG,-0.0657
11,CCACCCAA,0.0748
12,AATAACGG,0.0495
13,GACGATGC,-0.131
14,CGCGCATC,0.00543
15,ATCTGGGA,-0.222
16,CAAGGGCG,-0.203
17,CTCCTTCC,-0.165
18,ACGCAGAT,-0.00634
19,ATGAATAA,0.0199
20,GACGGACC,0.0359
21,AGGGAACT,-0.127
22,GCTATGGA,-0.033
23,AGCTAACT,-0.114
24,ACAGTATC,-0.14
25,CAAGATTC,0.0678

row,Sequence,PBM E-score
1,GAATCAGA,0.319
2,AGATAGAC,0.0285
3,ATATATGC,0.152
4,ACGCTTGG,-0.139
5,CTGCTTGA,-0.0612
6,GCGTCGGA,0.0588
7,ATAAAAGA,-0.261
8,GCTCTAAA,-0.343
9,CCTATTCC,-0.199
10,AGATCGGG,-0.0392
11,TCCTGAAA,-0.186
12,AGGTTATC,-0.0965
13,CCGTCCAC,-0.0131
14,AGACTGTA,-0.165
15,ATCACGTC,0.0744
16,AATGAAAA,-0.104
17,AATGGTGG,0.11
18,ACTGTCGG,-0.0612
19,CTACGATA,0.155
20,GTGGCGCA,0.0908
21,GGGTGACA,-0.16
22,AGTCGGAA,0.293
23,TCCAGCAA,-0.00891
24,CGGTTTAG,-0.0408
25,AGCAGAAT,-0.0316

row,Sequence,PBM E-score
1,ACAAAGCC,0.096
2,AGGTTCGA,0.0304
3,AATGATTG,0.199
4,TAAACACA,0.149
5,ATGTCAAC,-0.252
6,AGGATCCG,-0.113
7,ACTGGAGG,0.0908
8,GCTACCAA,-0.143
9,GCCGCGCC,-0.0664
10,AGATAGTG,0.178
11,CCTAGAAG,-0.183
12,CTGAATTC,-0.0862
13,ACTCTGGA,0.141
14,AGGCTTCA,-0.189
15,ATGTTCCA,-0.0195
16,ATAGGGAC,-0.0831
17,GCGTTGCA,-0.0568
18,AAAGCCTG,-0.137
19,GCCTCGAA,0.029
20,TAGGCCTA,-0.131
21,ACGGATTA,-0.0457
22,AATGTGAA,0.0216
23,ACTGCGCT,-0.0833
24,TCGTACCA,0.0293
25,CTAAACCA,0.00018

row,Sequence,PBM E-score
1,ATATCATC,0.152
2,CCACCACG,0.0638
3,GCCAAGCC,-0.0842
4,AACCTCAC,0.122
5,CCAGTCTC,-0.0597
6,TCGCGACA,0.133
7,CCAGGGGA,-0.0142
8,CTTACCGA,-0.0767
9,AAGCATGA,0.156
10,AATGATGA,0.163
11,CTGGGATA,-0.187
12,AGAATTTA,-0.18
13,TCGTTTAA,-0.132
14,TCGCAAAA,-0.0543
15,GGCGATAC,-0.0231
16,TCGCTCAA,-0.0505
17,TAAGAACA,0.192
18,ACACAGTG,0.203
19,GTTCTTTA,-0.00789
20,GATCAACC,0.0149
21,GTTCGCTA,-0.08
22,ATTCATGC,0.21
